Measurements taken from PubChem BioAssay AID1346428 (National Center for Advancing Translational Sciences (NCATS), 2018).
Where “and” joins values, the source holds several entries; their conditions need not be identical. Equal entries are not always repeated. Among all 48,000 compounds or so, about 1,200 (2.5%) were called active. Not shown: some 2% with an inconclusive outcome.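 The calls were made as follows: active = activation of at least 60% and not above a set upper limit (about 1 call in 100 departs from these limits); inconclusive = activation of 40% to 60%, or above that upper limit; inactive = activation under 40%.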 The list shows a part of the results. The source holds several records for some structures; these can differ, active in one and inactive in another.

Each compound was assayed against Probable G-protein coupled receptor 32 (Homo sapiens) (UniProt O75388) (assay: qHTS for Agonists of Human Resolvin D1 Receptor DRV1). Conditions: CHO-K1 GPR32 beta-arrestin PathHunter luminescence, 90 min; at 76.9 µM; stronger effect = higher value; zero percent set by DMSO-only wells.
Description: Endogenous resolution of inflammation is known to be transduced through various GPCRs and their natural mediators of lipid nature. Resolvin D1 (RvD1) is one of the active players in resolution of acute inflammation through regulation of anti-inflammatory pathways; it is known to enhance phagocytosis of human macrophages, limits neutrophils infiltration, etc. […] The search for GPR32-activating small molecules with anti-inflammatory effects similar to its natural omega-3 derivative ligand in order to use them as research tools for further studies of inflammation and its resolution was the goal of this screening project. For primary screening assay, we used CHO-K1 GPR32 beta-arrestin cell line (DiscoveRx, #93-0321C2A) and the PathHunter(R) beta-Arrestin Assay (DiscoveRx) which measures recruitment of beta-arrestin to the GPR32 and generates chemiluminescent signal. These engineered cells stably transfected with GPR32 co-express GPR32-fused small 42-amino acid fragment of beta-Gal called ProLinktrade mark, and […] -tagged beta-Arrestin fusion protein. When GPR32 is activated by a ligand, it stimulates binding of beta -Arrestin to ProLink-tagged GPR32, and two parts of beta-Gal complement forming a functional enzyme. Upon substrate (PathHunter(R) Detection reagent) addition, beta-Gal hydrolyzes it and generates a chemiluminescent signal.
The cells were thawed and plated in thawing media containing F-12 HAM (Invitrogen, #11765-054), 10% FBS (Invitrogen, #10082), 1x Glutamine, and 1x Pen/Strep onto the 175-mm flask for 24 hours. Then, thawing media was replaced with Growth media which contains 800microg/mL Geneticin (Invitrogen, #10131) and 300microg/mL Hygromycin B (Invitrogen, #10687) in addition to described above. For the assay, the cells were harvested at ~80% confluent stage with Cell Dissociation buffer (Gibco, #13151), and seeded at 2,500 cells/ 3microL/well in assay media (PathHunter(R) Cell Plating Reagent, DiscoverX, #93-0563R1B) using MultiDrop Combi dispenser (Thermo Scientific, Logan, UT) onto white solid bottom tissue culture-treated 1536-well plates (Greiner # 789173-F) and allowed to attach overnight at 37 degrees C, 95% humidity, 5% CO2, . Next, 23nL/well of compound solutions in DMSO were added with a Pin Tool (Kalypsis, San Diego, CA) to the assay plates. As the basal control (EC0), 23 nL/well of DMSO was used on each plate. The cells were incubated in the presence of compounds or DMSO for 90 minutes at 37 degrees C, 5% CO2. Subsequently, 1.5microL/well of PathHunter(R) Detection Reagent prepared per the manufacturer's instructions was added to the assay plates with BioRAPTR FRDtrade mark dispenser (Beckman Coulter, San Francisco, CA) and incubated for 1 hour at ambient temperature prior to the measurement of the luminescent signal on ViewLux(R) uHTS Microplate Imager (Perkin Elmer, Waltham, MA).

UniProt O75388, sequence (O75388 whole entry, looked up): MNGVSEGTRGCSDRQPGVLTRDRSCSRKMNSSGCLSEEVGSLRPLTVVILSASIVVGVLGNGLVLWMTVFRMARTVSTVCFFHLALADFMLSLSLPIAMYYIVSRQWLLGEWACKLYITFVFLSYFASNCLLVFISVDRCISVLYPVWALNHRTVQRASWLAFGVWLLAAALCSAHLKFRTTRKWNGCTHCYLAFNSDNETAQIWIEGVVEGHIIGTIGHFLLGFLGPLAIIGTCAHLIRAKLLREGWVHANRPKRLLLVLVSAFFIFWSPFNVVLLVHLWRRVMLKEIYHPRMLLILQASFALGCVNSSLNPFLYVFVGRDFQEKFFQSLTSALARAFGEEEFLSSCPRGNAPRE

Row | SMILES | activation
1 | CN1CC[C@@]2(C)c3cc(OC(=O)Nc4ccccc4)ccc3N(C)[C@@H]12 | inactive: 31.9%
2 | Oc1ccc(Cl)cc1 | inactive: 19%
3 | Clc1ccc(CCC(Cn2ccnc2)Sc2c(Cl)cccc2Cl)cc1 (stereo not drawn) | inactive: -106%
4 | CC(C)NP(=O)(NC(C)C)OP(=O)(NC(C)C)NC(C)C | inactive: -2.41%
5 | C[N+](C)(C)CCOC(=O)C(O)(c1ccccc1)c1ccccc1 | inactive: -0.378%
6 | CCC(=O)C(CCN(C)C)(c1ccccc1)c1ccccc1 | inactive: -26.8%
7 | CC(=O)c1cccc(NC(=O)c2cccn(Cc3cccc(C)c3)c2=O)c1 | inactive: 13.6%
8 | CCSc1nnc(NC(=O)c2cccn(Cc3ccccc3Cl)c2=O)s1 | inactive: 11.8%
9 | Cc1c2ccncc2c(C)c2c1[nH]c1ccccc12 | inactive: -8%
10 | CCOc1ccccc1NC(=O)c1cccn(Cc2ccccc2C)c1=O | inactive: 13.6%
11 | N#Cc1cc2c(nc1SCC(=O)Nc1cccc(C(F)(F)F)c1)C1CCN2CC1 | active: 63.5%
12 | COc1ccc(C(c2c(O)c3ccccc3oc2=O)c2c(C)n(C)n(-c3ccccc3)c2=O)cc1 (stereo not drawn) | inactive: 13.3%
13 | O=C1CN2CCOC2(c2ccccc2Cl)c2cc(Cl)ccc2N1 (stereo not drawn) | inactive: 0.239%
14 | CC(C)(O)[C@@H]1C2OC(=O)[C@@H]1[C@]1(O)C[C@H]3O[C@]34C(=O)O[C@H]2[C@]14C (tested in a mixture with another compound) | inactive: -5.41%
15 | Cc1ccc(NC(=O)CN2C(=O)CN=C(c3ccccc3)c3ccccc32)cc1Cl | inactive: -26.4%
16 | CC(=O)NBr | inactive: 5.14%
17 | O=C(O)COc1ccccc1 | inactive: -0.19%
18 | COc1cccc(-c2nn3c(=O)cc(CN4CCN(C(=O)COc5ccccc5C)CC4)nc3s2)c1 | inactive: 22.4%
19 | Cc1ccc(OCC(=O)Nc2ccc(Cl)cc2C(=O)c2ccccc2)cc1C | inactive: 3.19%
20 | CC1N=C(N)OC1c1ccccc1 (stereo not drawn) | inactive: -12.2%
21 | Cc1nccc2c1[nH]c1ccccc12 | inactive: 14.1%
22 | CCCN1CCc2cccc3c2[C@H]1Cc1ccc(O)c(O)c1-3 | inactive: 4.39%
23 | NC(N)=NOCCC(N)C(=O)O (stereo not drawn) | inactive: -4.07%
24 | CCCN(CCC)C1CCc2cccc(O)c2C1 (stereo not drawn) | inactive: 2.81%

Row | SMILES | activation
25 | Cc1nnc(NC(=O)c2cccn(Cc3cccc(F)c3)c2=O)s1 | inactive: 23.9%
26 | O=c1oc2ccccc2c(O)c1Cc1c(O)c2ccccc2oc1=O | inactive: -7.9%
27 | Cc1ccccc1-n1c(/C=C/c2ccc(N(C)C)cc2)nc2ccccc2c1=O | inactive: -25.1%
28 | O=[N+]([O-])c1cc([As](=O)(O)O)ccc1O | inactive: 4.34%
29 | O=C(c1ccc2c(c1)N(Cc1ccc(F)cc1)C(=O)c1ccccc1S2)N1CCC2(CC1)OCCO2 | inactive: -11.7%
30 | c1ccc2c(c1)[I+]c1ccccc1-2 | active: 85.7%
31 | COc1ccc(OCC(=O)N2CCN(Cc3ccc(SC)cc3)CC2)cc1 | inactive: -6.34%
32 | COc1ccc2c(c[n+](C)c3c4cc5c(cc4ccc23)OCO5)c1OC | active: 66.5%
33 | O=C(O)c1ccc2[nH]cc(CCCCN3CC=C(c4ccccc4)CC3)c2c1 | inactive: 12.7%
34 | CNc1ccc2oc(C[C@H]3O[C@@]4(CC[C@H]3C)O[C@H]([C@H](C)C(=O)c3ccc[nH]3)[C@H](C)C[C@H]4C)nc2c1C(=O)O | inactive: -37.9%
35 | CC(C)c1ccc(OCC(=O)N2CCN(CCc3ccccn3)CC2)cc1 | inactive: 17.3%
36 | CN1CC[C@@]2(C)c3cc(O)ccc3N(C)C12 (stereo partly drawn) | inactive: 13.4%
37 | Cc1ccc(OCC(=O)N2CCN(CCc3ccncc3)CC2)cc1 | inactive: -14.3%
38 | Cc1cccc(Cn2cccc(C(=O)Nc3ccc(F)cc3F)c2=O)c1 | inactive: 9.44%
39 | COc1ccc(OCC(=O)N2CCN(Cc3cc(=O)n4nc(-c5ccc(OC)cc5)sc4n3)CC2)cc1 | inactive: -1.08%
40 | Cc1ccc(C(C)C)c(OCC(=O)N2CCN(CCc3ccncc3)CC2)c1 | inactive: 11.1%
41 | CN(C)C(=O)Oc1cc(OC(=O)N(C)C)cc(C(O)CNC(C)(C)C)c1 (stereo not drawn) | inactive: -5.22%
42 | CN(C(=O)Cc1ccc(Cl)c(Cl)c1)C(CN1CCCC1)c1cccc(OCC(=O)O)c1 (stereo not drawn) | inactive: -12.5%
43 | NCCc1ccc(O)cc1 | inactive: 6.88% and inactive: 4.41%
44 | CNC(C)Cc1ccc2c(c1)OCO2 (stereo not drawn) | inactive: -43%
45 | N[C@@]1(C(=O)O)CC[C@@H](C(=O)O)C1 | inactive: 0.22%
46 | O=C(CCCCl)c1ccc(F)cc1 | inactive: -5.47%
47 | C[N+]1(C)CCN(c2ccccc2)CC1 | inactive: -0.125%
48 | ClC1=C(Cl)[C@]2(Cl)[C@@H]3[C@@H]4C[C@@H]([C@H]5O[C@@H]45)[C@@H]3[C@@]1(Cl)C2(Cl)Cl | active: 113%

Row | SMILES | activation
49 | CCC1(c2ccc(N)cc2)CCC(=O)NC1=O (stereo not drawn) | inactive: -5.48% and inactive: 0.972%
50 | C[C@H](Cc1ccc2c(c1)OC(C(=O)O)(C(=O)O)O2)NC[C@H](O)c1cccc(Cl)c1 | inactive: 10.9%
51 | Cc1ccc(C(=O)Nc2ccccc2)cc1S(=O)(=O)N1CCCC1 | inactive: 44%
52 | C[C@@H](N)[C@@H](O)c1ccccc1 | inactive: -4.4%
53 | CCCN1CCC[C@H](c2cccc(O)c2)C1 | inactive: 0.951%
54 | NC(=O)COc1c(F)cc(SCCNS(=O)(=O)c2ccccc2)cc1F | inactive: -3.23%
55 | C#CC(O)(C=CCl)CC (stereo not drawn) | inactive: 21.4%
56 | C[C@@H]1O[C@@H](O[C@H]2C[C@@H](O)[C@]3(CO)[C@H]4[C@H](O)C[C@]5(C)[C@@H](C6=CC(=O)OC6)CC[C@]5(O)[C@@H]4CC[C@]3(O)C2)[C@H](O)[C@H](O)[C@H]1O | active: 65.2% and inactive: 16.3%
57 | COc1cc(CCN)cc(OC)c1OC | inactive: -3.94%
58 | Clc1cc(I)cc(Cl)c1NC1=NCCN1 | inactive: -8%
59 | CCc1ccc(OCC(=O)N2CCN(CCc3ccncc3)CC2)cc1 | inactive: -6.58%
60 | CC1NCCOC1c1ccccc1 (stereo not drawn) | inactive: -12.9%
61 | C[C@@H](N)Cc1cnc[nH]1 | inactive: 2.3%
62 | CCCN1CCC[C@@H]2Cc3[nH]ncc3C[C@H]21 | inactive: 5.75% and inactive: -3.72% and inactive: -15.4%
63 | Cc1ccccc1CN1C(=O)C(C)N=C(c2ccccc2)c2ccccc21 (stereo not drawn) | inactive: -24%
64 | [N-]=[N+]=CC(=O)OC[C@H](N)C(=O)O | inactive: 1.29%
65 | CCN(CC)Cc1nccn1-c1ccc([N+](=O)[O-])cc1C(=O)c1ccccc1Cl | inactive: -14.5%
66 | COP(=S)(OC)Oc1ccc(S(N)(=O)=O)cc1 | inactive: -39.5%
67 | COc1cccc2c1C(=O)c1c(O)c3c(c(O)c1C2=O)C[C@@](O)(C(=O)CO)CC3OC1CC(N2CCOC(OC)C2)C(O)C(C)O1 (stereo partly drawn) | inactive: -51.6%
68 | O=C(O)CCCCCCNC1c2ccccc2CCc2ccccc21 | inactive: 4.18%
69 | CCOc1ccc(CN(CCc2ccc3c(c2)OCO3)Cc2ccc(OC)c(Br)c2)cc1 | inactive: -21.9%
70 | CCOc1ccc2nc(NC(=O)c3cccn(Cc4ccccc4Cl)c3=O)sc2c1 | inactive: 4.31%
71 | COc1ccc(Cc2nccc3cc(OC)c(OC)cc23)cc1OC | active: 119% and inactive: 15.7%
72 | COc1cccc(NC(=O)c2cccn(Cc3ccccc3C)c2=O)c1 | inactive: 14.3%

Row | SMILES | activation
73 | COc1ccccc1C1SCC(=O)Nc2c1c(C)nn2-c1cccc(C)c1 (stereo not drawn) | inactive: 7.15%
74 | Cc1ccc(Cn2cccc(C(=O)Nc3ccc4c(c3)OCCO4)c2=O)cc1 | inactive: 1.86%
75 | C[C@H](CN1CCOCC1)C(C(=O)N1CCCC1)(c1ccccc1)c1ccccc1 | inactive: 17.3%
76 | Cc1ccc(-c2nc(CN3C(=O)CN=C(c4ccccc4)c4ccccc43)c(C)o2)cc1 | inactive: -17.9%
77 | CCN(CC)C(=O)c1ccc(NC(=O)c2ccc(-c3nn(C)c(=O)c4ccccc34)cc2)cc1 | inactive: 9.41%
78 | CCC1(CC)C(=O)C=CNC1=O | inactive: -10.6%
79 | CNCCc1c[nH]c2ccc(O)cc12 | inactive: 2.09%
80 | NCCCP(=O)(O)O | inactive: -0.767%
81 | O=C(N/N=C/c1ccc([N+](=O)[O-])o1)c1cc([N+](=O)[O-])cc([N+](=O)[O-])c1O | inactive: -36%
82 | Cc1ccc(-c2nn3c(=O)cc(CN4CCN(C(=O)COc5ccc(C)c(C)c5)CC4)nc3s2)cc1 | inactive: -7.97%
83 | COc1ccc(Br)cc1C1SCC(=O)Nc2c1c(C)nn2-c1ccccc1C (stereo not drawn) | inactive: -11.9%
84 | CCCC1=Nc2cc(C(=O)NCCCN(CC)CC)ccc2Sc2ccccc21 | inactive: 15.4%
85 | COC(=O)[C@@H](N)CCCN=C(N)N[N+](=O)[O-] | inactive: -2.97%
86 | NNC(=O)c1ccc(O)cc1 | inactive: 4.55%
87 | CCCC12CN3CC(C)(CN(C1)C3c1c(C)[nH]c(=O)[nH]c1=O)C2=O (stereo not drawn) | inactive: 1.45%
88 | C[C@]12CC[C@H]3[C@@H](CC[C@@]45O[C@H]4C(O)=C(C#N)C[C@]35C)[C@H]1CC[C@H]2O | inactive: -7.27%
89 | CC(C)(C)NCC(O)c1cc(Cl)c(N)c(Cl)c1 (stereo not drawn) | inactive: 6.55%
90 | Fc1ccc(C(OCCN2CCN(CCCc3ccccc3)CC2)c2ccc(F)cc2)cc1 | inactive: -4.67% and inactive: -13.9%
91 | N[C@@H](CCl)C(=O)O | inactive: 0.662%
92 | CN(C)c1ccc(NC(=O)c2sc3nc4c(cc3c2N)N2CCC4CC2)cc1 | inactive: 3.69%
93 | C=C(C)[C@H]1Cc2c(ccc3c2O[C@@H]2COc4cc(OC)c(OC)cc4[C@@H]2C3=O)O1 | inactive: 20.9% and inactive: 34.9%
